Among the data in PubChem BioAssay AID463173 (ICCB-Longwood Screening Facility, Harvard Medical School, 2010) are survival values, retold here.

Hit rate of the full screen: of about 52,000 compounds, about 1,700 (3.3%) were called active. Rule as the data show it: active = survival mostly below about 52% (no sharp cut-off); inactive = mostly above about 56%. This is one part of the list.

For the assay, the system named is Wild type. As to the kind of experiment: S. aureus survival, RN4220 and DeltatarO strains – OD600, teichoic acid synthesis inhibitors, primary screen (AID 463173). Particulars: S. aureus RN4220 wild type/DeltatarO growth, OD600, 18 h, hits give low values, screened at 18.75 µg/mL (by protocol).
Consider `CCCC(=O)OCc1cnc(C)c2oc(=O)c(C(=O)Nc3ccc(F)cc3C)cc12`, for which the survival was inactive: 72%. Then `CC1CCN(C(=O)CS(=O)(=O)Cc2ccccc2)CC1`, with inactive: 102%; and `COc1ccc(-c2noc(CNC(=O)c3ccc(OC)cc3OC)n2)cc1`, with inactive: 93%; and `O=S(=O)(NCc1ccco1)c1ccc(S(=O)(=O)N2CCCCC2)cc1`, with inactive: 99%.

In the case of `CCC1=Nc2cc(C(=O)N3CCC(C)CC3)ccc2Sc2ccc(C)cc21`, the survival is active: -1%. Then `Cc1ccc(C)c(NC(=O)C2CCCN2S(=O)(=O)c2ccc3c(c2)CCCC(=O)N3)c1` (configuration not stated), with inactive: 79%; and `Cc1ccc2[nH]cc(NC(=O)NCCO)c(=O)c2c1`, with inactive: 117%. Then `Cc1ccc2nc(N3CCN(c4ccc(F)cc4)CC3)c3nnnn3c2c1`, with active: 14%; and `CCOc1ccc(CCNC(=O)C2CC(=O)N(CCc3ccc(OC)c(OC)c3)C2)cc1OCC` (configuration not stated), with inactive: 77%. For the molecule `COC(=O)c1cn(-c2ccccc2)nc1C(=O)OC`, the survival is inactive: 103%. To `COc1cccc(-c2noc(COc3cccc(C)c3C)n2)c1` belongs inactive: 85%; to `CCCCN(CC)CCNC(=O)c1nn(-c2ccc(OC)cc2)c(=O)c2c1c1ccccc1n2C`, inactive: 75%.

Take `N#C/C(=C\c1ccccc1)c1nc(-c2cc3c(ccc4ccccc43)oc2=O)cs1`: the survival was inactive: 130%. Take `CCOC(=O)c1c(NC(=O)COc2ccc(OC)cc2)sc(C(=O)N(CC)CC)c1C`: the survival was active: -8%. For `CCOC(=O)c1cccc(NC(=O)Cn2cnc3nc4c(cc3c2=O)CCCC4)c1`, the survival is inactive: 73%. To `O=c1sc2ccccc2n1CCCOc1ccccc1` belongs inactive: 116%; to `CCN(CC)CCCNC(=O)c1ccc2c(c1)NC(=O)C(CS(=O)(=O)Cc1ccc(F)cc1Cl)N2` (configuration not stated), inactive: 159%. To `COCCNC(=O)c1sc2nc3n(c(=O)c2c1C)CCC3` belongs inactive: 85%; to `CCc1ccc(NS(=O)(=O)c2ccc3[nH]cc(C(=O)NCCc4ccccc4)c(=O)c3c2)cc1`, inactive: 97%; to `COc1ccc(N2CC(c3nc(-c4ccccc4C)no3)CC2=O)cc1Cl` (configuration not stated), inactive: 88%. To `Nc1cccc(Cl)c1N1CCOCC1` belongs inactive: 110%.

For `CS(=O)(=O)N(CC(=O)O)c1ccc(Cl)cc1`, the survival is inactive: 121%.

`Cc1ccc(-c2onc(C)c2C)cc1S(=O)(=O)N1CCc2ccccc21`: the survival was inactive: 117%. To `Cc1nc(-c2ccc(Cl)cc2)sc1CCNC(=O)C(=O)Nc1ccccc1C#N` belongs inactive: 74%.

For the molecule `COC(=O)c1ccc(NC(=O)C(c2ccccc2)N2Cc3ccccc3C2=O)cc1` (configuration not stated), the survival was inactive: 64%.

Turning to `Cc1cccc(CCNC(=O)CCc2c(C)nc3c(-c4ccc(F)cc4)c(C)nn3c2C)c1`, the survival is inactive: 92%. Then `CN1CCN(c2ccc(-c3nc(-c4ccccc4)no3)cc2[N+](=O)[O-])CC1`, with inactive: 27%.

`COc1ccc(N2CCN(C(=O)c3cc4c(s3)-c3c(C)cccc3OC4)CC2)cc1`: the survival was inactive: 91%. Then `Cc1cc(C)cc(NC(=O)C2CCCN(c3nnc(-n4c(C)ccc4C)s3)C2)c1` (configuration not stated), with inactive: 75%; and `C=Cn1c(C)c(C(C#N)=C(C#N)C#N)c2c1CCCC2`, with inactive: 55%.

In the case of `COCCn1c(SCC(=O)Nc2ccc(Br)cc2)nc2c([nH]c3ccccc32)c1=O`, the survival is inactive: 92%. Then `CCCc1ccc(OC(=O)c2sc3ncn(Cc4cccc(F)c4)c(=O)c3c2C)cc1`, with inactive: 67%. To `COc1ccc(NC(=O)Cn2c(SCc3c(F)cccc3Cl)nc3ccncc32)cc1OC` belongs inactive: 77%.

Turning to `Nc1ccccc1-n1ccnc1`, the survival was inactive: 100%. Then `CCN(CC)c1ccc(NC(=O)C2CCCN(S(=O)(=O)c3ccc4c(c3)oc(=O)n4C)C2)c(C)c1` (configuration not stated), with inactive: 121%. To `Cc1ccc(NC(=O)C2CCCN(S(=O)(=O)c3ccc(C)cc3)C2)cc1` (configuration not stated) belongs inactive: 83%. In the case of `CCOC(=O)c1c(S(=O)(=O)N2CCN(c3cc(Cl)ccc3C)CC2)c(C)n(C)c1C`, the survival is inactive: 124%. To `COc1ccccc1CSc1nc2n(n1)C(c1ccccc1)C(C(=O)Nc1ccc(C)cc1)=C(C)N2` (configuration not stated) belongs inactive: 89%. `COc1ccccc1-c1ncnn1-c1sc2c(c1C#N)CCCCC2`: the survival was active: 1%.

`COc1cc(NS(=O)(=O)c2ccc3c(c2)OCC(C(=O)N2CCCC2)O3)cc(OC)c1` (configuration not stated): the survival is inactive: 77%. Then `COc1ccc(NC(=O)Cn2ncc3c4ccccc4n(Cc4ccccc4)c3c2=O)cc1OC`, with inactive: 86%.

Take `Cc1ccc(NC(=O)Cn2nc(-c3ccc(Cl)cc3)c3ccccc3c2=O)cc1`: the survival was inactive: 79%. To `CCOc1ccc(Cc2nc(C)c(CC(N)=O)c(=O)[nH]2)cc1` belongs inactive: 99%.

As for `CCCCNC(=O)c1ccc(-c2nc(CN3CCc4ccccc43)c(C)o2)cc1`, the survival is inactive: 128%.

For the molecule `COc1ccc(OC)c(S(=O)(=O)NCCc2sc(C)nc2C)c1`, the survival was inactive: 65%. Then `Cc1c(Cl)cccc1NC(=O)CCS(=O)(=O)c1cccc2nsnc12`, with inactive: 88%; and `Cc1ccc(Nc2c3c(nc4ccccc24)CCC3)cc1F`, with active: 2%; and `Cc1ccc(CNC(=O)CCN2C(=O)C(C)Oc3ccc(C)cc32)cc1` (configuration not stated), with inactive: 121%. Then `CCc1ccc(-c2nc3cc(NC(=O)c4ccc(F)cc4)ccc3o2)cc1`, with inactive: 101%; and `Cc1cccc(COc2ccc(-c3cc(C(F)(F)F)n4nc(C)cc4n3)cc2)c1`, with inactive: 38%; and `Cc1cn2c(=O)cc(COC(=O)COc3ccc(F)cc3)nc2s1`, with inactive: 81%.

As to `COc1cccc(-c2nn(C)c3sc(C(=O)N4CCN(c5cccc(C(F)(F)F)c5)CC4)cc23)c1`, the survival was inactive: 75%. Then `COc1ccccc1N(CC(=O)NCCSc1ccccc1)S(=O)(=O)c1ccc(C)cc1`, with inactive: 74%; and `Cc1ccc(NC(=O)CCNS(=O)(=O)c2cccs2)cc1F`, with inactive: 64%. In the case of `COc1cccc(CCNC(=O)c2cnc3sc(N4CCCC4)nn3c2=O)c1`, the survival is inactive: 77%.

For the molecule `Cc1cccc(-n2c3nc(=O)n(C)c(=O)c-3cc3c(C)nn(-c4ccccc4)c32)c1C`, the survival was inactive: 83%. To `CSc1ncc2c(n1)-c1ccccc1N(Cc1ccccc1C)S2(=O)=O` belongs inactive: 87%. Regarding `COc1ccc(-n2c(=O)c3c(c4cc(OC)ccc4n3C)n(Cc3c(F)cccc3Cl)c2=O)cc1`, the survival is inactive: 93%. On to `COc1ccc(-c2cc(C(N)=O)on2)c(OC)c1`, for which the survival is inactive: 114%.

Consider `COC1(C(F)(F)F)NC(=O)N(c2ccc(F)cc2)C1=O` (configuration not stated), for which the survival was inactive: 68%. Then `CCOC(=O)c1cnn(-c2cccc(Cl)c2)c1C1CCN(C(=O)OC(C)(C)C)CC1`, with inactive: 57%; and `Cc1ccc(OCCSc2nc3ccc(NC(=O)COc4ccc(C)cc4)cc3s2)cc1`, with inactive: 91%. To `CCOC(=O)C1=C(CN(CC)Cc2ccccc2)NC(=O)NC1c1ccc(Cl)cc1` (configuration not stated) belongs inactive: 69%; to `COc1ccc(NC(=O)N2CCC(n3c(C)nc4cccnc43)CC2)cc1OC`, inactive: 69%; to `COc1ccc(Cl)cc1NC(=O)N1CCC2(CC1)Oc1ccccc1C(=O)N2Cc1ccc(F)cc1`, inactive: 80%. For `CSc1nc2sc3c(c2c(=O)n1-c1ccc(C)cc1)CCCC3`, the survival was inactive: 51%.

For `CC1(C)Cc2c(sc(/N=C/N3CCCC3)c2C#N)C(C)(C)N1`, the survival was inactive: 110%.

As to `Fc1ccc(NCc2nc3ccccc3n2CCOc2ccccc2Cl)cc1`, the survival is inactive: 95%. Then `CC1CCc2c(sc3nnn(CC(=O)Nc4ccccc4Cl)c(=O)c23)C1` (configuration not stated), with inactive: 77%. Consider `CCCCC(=O)Nc1cc(-c2cn3cccnc3n2)ccc1C`, for which the survival was inactive: 135%.

In the case of `CCOc1ccc(-c2c(C)nn3c(C)c(C(=O)NC(C)c4ccccc4)cnc23)cc1OCC` (configuration not stated), the survival was inactive: 75%. To `O=C1NCN(c2ccccc2)C12CCN(c1nnnn1-c1ccccc1)CC2` belongs inactive: 102%. For `CCCn1cc(S(=O)(=O)c2ccc(OCC)cc2)c(=O)c2cc(C)ccc21`, the survival was inactive: 88%.

Consider `CCN(CC)c1ccc2c(COC(C)=O)cc(=O)oc2c1`, for which the survival was inactive: 115%.

Turning to `Cc1ccc(CCC(=O)Nc2ccc(C(C)C)cc2)o1`, the survival was inactive: 112%. Then `O=C(Cn1ccn(-c2ccc(F)c(F)c2)c(=O)c1=O)NCc1ccccc1`, with inactive: 84%; and `O=C(CCSCc1ccccc1Cl)NCCc1ccccc1`, with inactive: 74%. To `Cc1c(-c2cccc(NC(=O)Cc3ccccc3)c2)nc2ncccn12` belongs inactive: 73%.

In the case of `Cc1ccc(OCCSc2nc3ccccc3n2CC(=O)N2CCOCC2)cc1C`, the survival was inactive: 84%.

Take `COc1ccc(CNc2nc(-c3ccccc3)nn2C(=O)c2ccccc2OC)cc1`: the survival was inactive: 84%. Then `COc1cc(Cl)c(S(=O)(=O)N2CCN(c3c(C)cccc3C)CC2)cc1Cl`, with inactive: 92%; and `COCCn1c(C)nnc1SCC1CCCO1` (configuration not stated), with inactive: 127%; and `CN(Cc1ccccc1)C(=O)c1c[nH]c2ccc(S(=O)(=O)Nc3ccccc3F)cc2c1=O`, with inactive: 84%. As to `CCOC(=O)c1cc2c(=O)n3ccccc3nc2n(CC2CCCO2)c1=NC(=O)c1ccc(OCC)cc1` (configuration not stated), the survival is inactive: 81%. To `CCOc1cc(C(=O)N2CC(=O)Nc3ccc(F)cc3C2c2ccccc2)cc(OCC)c1OCC` (configuration not stated) belongs inactive: 75%; to `Cc1cc(C=C(C#N)C#N)c(C)n1-c1ccc(N2CCOCC2)cc1`, inactive: 122%; to `CCn1c(=O)c(C(=O)Nc2nccs2)c(O)c2ccccc21`, inactive: 103%. Consider `CC(C)OCCCNC(=O)Cn1c(-c2cccs2)cc2cc(F)ccc21`, for which the survival is inactive: 91%.

On to `COc1ccc(N2CCN(CCCNC(=O)c3sc4ncccc4c3-n3cccc3)CC2)cc1`, for which the survival is inactive: 78%. To `COc1cc2nc(NCCc3ccc(Cl)cc3)n3nc(-c4ccccc4)nc3c2cc1OC` belongs inactive: 74%. Then `CCN(C(=O)c1nn(C)c2c1CSc1ccccc1-2)c1cccc(C)c1`, with inactive: 106%; and `COc1ccc(NC(=O)Cn2nc(C)c3c(C)n(-c4ccccc4)nc3c2=O)cc1OC`, with inactive: 47%.
